The data set deals with the molecule itself. Description: single-molecule TIRF microscopy (intensity distribution of fluorescent spots); living stably transfected CHO cells, SNAP-tag labelled with 1 uM Alexa546-BG, ligand-free; spots of the first 10 frames fitted with a mixed Gaussian model; room temperature (24.0 ± 0.3 °C), imaging buffer pH 7.4; SNAP-D2L at 0.67 ± 0.03 spots um^-2.

B1: SNAP-CD28 (human CD28 truncated at R185, SNAP-tag at the extracellular N-terminus) (domain or fragment)
chain: not shown
modifications: Alexa546 covalently on the SNAP-tag through benzylguanine (Alexa546-BG)
notes: human CD28 truncated at R185, PCR amplified from a CD28-YFP plasmid and ligated into pSNAPf in place of D2L; Called a disulfide-bridged protein dimer; also called SNAP-28; dimeric control protein; source: CHO-K1, stably transfected, in the membrane of living cells; not shown: SNAP-tag, N-terminal, kept
One may read the stoichiometry N as a count of units in the complex or per binding partner. Regarding B1, the “stoichiometry N” value was 2.

Values taken from publication PMC5018964, “Visualization and ligand-induced modulation of dopamine receptor dimerization at the single molecule level” (Scientific Reports, 2016).
